Measured values reported in PubChem BioAssay AID1454 (National Center for Advancing Translational Sciences (NCATS), 2008).
Out of some 130,000 compounds screened, about 550 (0.42%) were called active. Inconclusive means that the source gave no clear call. Such entries were picked first, then a sample of the others. The call rests on the fitted dose curve; in most records, active means well fitted inhibition curve with a large enough effect; inconclusive means small, poorly fitted or top-dose-only effect, or effect the other way; inactive means flat fitted curve, though single readings scatter. Potencies of inconclusive entries are left out as doubtful fits.

Assay: qHTS Assay for Inhibitors of the ERK Signaling Pathway using a Homogeneous Screening Assay; Stimulation with EGF; further: nearly all actives have a fitted effect of over 55% in size;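 on activity change, negative = inhibition: plate controls were stimulated vehicle wells for no effect and unstimulated vehicle basal for full effect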
Settings: HEK293-V1b, EGF-stimulated phospho-ERK AlphaScreen; activity change, negative = inhibition: at the top concentration
Method in brief: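 Concentration-response of compounds against EGF-driven ERK phosphorylation in V1b-expressing HEK293 cells; 30 min preincubation, 5 min EGF, AlphaScreen detection; Normalized to DMSO basal and 25 nM EGF.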
Potency means the concentration at half of the fitted maximal effect; tags describe the fitted curve by direction and shape.

Structure (SMILES) | Potency | activity change, negative = inhibition
CCOC(=O)Cc1nnc(Nc2cc(C)ccc2C)c2ccccc12 | inconclusive [inhibitor, partial curve, poor fit] | –
O=C(CCC1CCCN(Cc2cccc(Cl)c2)C1)NCc1ccccc1F (centres undefined) | inconclusive [inhibitor, single point] | –
Cn1cccc1C(=O)N1CCC2(CCN(Cc3ccncc3)CC2)CC1 | – | inactive: 2.48%
Cn1c(N)c(C(=O)COC(=O)c2ccc(Cl)c(S(=O)(=O)N3CCCC3)c2)c(=O)n(C)c1=O | – | inactive: -1.81% [at 57.5 µM]
Fc1ccccc1CSc1ccc(-c2ccco2)nn1 | inconclusive [inhibitor, partial curve] | –
CCc1ccc(NC2=NCC(c3ccccc3)S2)cc1 (centres undefined) | inconclusive [inhibitor, single point] | –
O=C(Nc1ccc(S(=O)(=O)N2CCCCC2c2cccnc2)cc1)c1ccccc1F (centres undefined) | inconclusive [inhibitor, single point] | –
COc1ccccc1OCCSc1nc2ccc([N+](=O)[O-])cc2s1 | inconclusive [inhibitor, single point] | –
COc1cc2c(cc1OC)C(/C=C/c1ccco1)=NCC2 | inconclusive [inhibitor, single point] | –
COc1ccccc1CN=c1c([N+](=O)[O-])nn(-c2ccc3c(c2)OCCO3)n1O | inconclusive [inhibitor, partial curve] | –
CCC(=O)NC(c1cccs1)c1ccc2cccnc2c1O (centres undefined) | inconclusive [inhibitor, partial curve] | –
COC(=O)N1CCC2(CCN(C(=O)Nc3ccccc3)CC2)CC1 | – | inactive: -1.52%
CC(C)(C)OC(=O)NCCCC[C@H](NC(=O)c1nc[nH]c1C(=O)N1CCN(c2ccccc2)CC1)C(=O)OC(C)(C)C | – | inactive: 2.73% [at 57.5 µM]
CC/C(=C(\c1ccc(O)cc1)c1ccc(OCCN(C)C)cc1)c1ccccc1 | – | inactive: -0.625% [at 57.5 µM]
c1ccc(CNc2nc(N3CCN(Cc4ccccc4)CC3)nc3ccccc23)cc1 | inconclusive [inhibitor, partial curve] | –
O=C(O)c1ccc(Sc2nnc3ccccn23)c([N+](=O)[O-])c1 | – | inactive: 4.71% [at 57.5 µM]
O=C(NCC(c1ccco1)N1CCN(c2ccccc2)CC1)OCc1ccccc1 (centres undefined) | inconclusive [activator, partial curve] | –
Cc1ccc(C(=O)NCCN2C3=NC[C@H](C)N3C[C@H]2Cc2ccc(O)cc2)cc1Br | inconclusive [inhibitor, partial curve] | –
COc1cccc(C(=O)NC2CC3CCCC(C2)N3S(=O)(=O)c2ccccc2)c1 (centres undefined) | inconclusive [inhibitor, partial curve] | –
Cc1[nH]c(N=Nc2ccccc2)nc1N=Nc1ccccc1 | active: 22.4 µM | –
CCn1cc(C(=O)N2CCN(c3cccc(C)c3C)CC2)c(=O)c2ccc(C)nc21 | inconclusive [inhibitor, partial curve] | –
COc1ccc(Nc2nc(NC(C)(C)C)nc(N3CCOCC3)n2)c(OC)c1 | inconclusive [inhibitor, single point] | –

Structure (SMILES) | Potency | activity change, negative = inhibition
NC(=O)c1cccc(-c2cc(Nc3ccc(OC(F)(F)F)cc3)ncn2)c1 | inconclusive [inhibitor, partial curve] | –
COc1ccc(/C=C/c2c([N+](=O)[O-])c(=O)n(C)c(=O)n2C)cc1 | inconclusive [inhibitor, single point] | –
Cc1cc(/C=C/C(=O)O)c(C)n1-c1ccc(Cl)cc1 | – | inactive: 2.13%
Cc1ccc(C(=O)N/C(=C/c2ccccc2)C(=O)NCc2ccncc2)cc1 | inconclusive [activator, single point] | –
CC1=C(C(=O)OCc2ccccc2)C(c2ccc(Cl)cc2Cl)NC(=O)N1CCCCCC(=O)O (centres undefined) | inconclusive [inhibitor, single point] | –
CCC(=O)c1ccc(N2CCN(C(=O)c3cc([N+](=O)[O-])ccc3F)CC2)c(F)c1 | inconclusive [inhibitor, single point] | –
C=C(C(=O)O)[C@@H]1CC[C@@]2(C)CCC[C@](C)(O)[C@@H]2C1 | – | inactive: -8.65%
CC(=O)C1=C(c2ccc(Br)cc2)C(=O)c2ccccc2C1=O | inconclusive [inhibitor, single point] | –
CCCC(=O)Nc1cccc(S(=O)(=O)N(C)c2ccccc2)c1 | inconclusive [inhibitor, single point] | –
COc1ccccc1NC(=O)/C(=C\c1cccs1)NC(=O)c1ccco1 | inconclusive [inhibitor, single point] | –
Cc1nn(S(=O)(=O)c2ccc(Cl)cc2)c(C)c1Sc1ccc([N+](=O)[O-])cc1 | inconclusive [inhibitor, partial curve] | –
COc1cccc(N2CC(O)=C(c3nc4ccccc4c(=O)[nH]3)C2=N)c1 | inconclusive [inhibitor, single point] | –
Fc1ccc(-c2cc(C(F)(F)C(F)F)[nH]n2)cc1 | inconclusive [inhibitor, partial curve, poor fit] | –
Cc1cccn2c(CN(C)CC3Cc4ccccc4O3)c(C(=O)N3CCCCC3)nc12 (centres undefined) | inconclusive [inhibitor, single point] | –
O=C(N/N=C/c1sc2ccccc2c1O)c1ccccc1 | inconclusive [inhibitor, single point] | –
CCNC(=O)c1ccc(OCC(=O)Nc2ccc(F)cc2)c(OC)c1 | – | inactive: -6.79% [at 57.5 µM]
c1ccc(CSc2ccc(-c3cccs3)nn2)nc1 | – | inactive: 5.49%
COc1ccc(N2CCN(C(=O)c3ccc(Br)cc3)CC2)c([N+](=O)[O-])c1 | inconclusive [inhibitor, single point] | –
O=C(O)CC(C(=O)N(c1ccccc1)c1ccccc1)N1CCOCC1 (centres undefined) | inconclusive [inhibitor, partial curve] | –
CNc1ccc(/C=C2\CSc3ccccc3C2=O)cc1[N+](=O)[O-] | inconclusive [inhibitor, full curve] | –
Cc1cc(=S)c2cccc(C)c2[nH]1 | – | inactive: 11.4%
NC(=O)CC(NC(=O)c1ccccc1)c1ccc(NCC2CC2)c([N+](=O)[O-])c1 (centres undefined) | inconclusive [inhibitor, partial curve, poor fit] | –

Structure (SMILES) | Potency | activity change, negative = inhibition
CCCCCCCCCCCCCCCCCC(=O)NCC(COP(=O)([O-])OCC[N+](C)(C)C)OCC (centres undefined) | inconclusive [inhibitor, single point] | –
COc1ncc2nc(-c3cccs3)c(=O)n(-c3ccccc3)c2n1 | – | inactive: -9.12%
CC(=O)c1ccc(N2CCN(CC(=O)N(CC(C)C)c3c(N)n(CC(C)C)c(=O)[nH]c3=O)CC2)cc1 | inconclusive [inhibitor, single point] | –
CC(C)(C)OC(=O)N/N=C/c1cc(N=Nc2ccccc2)ccc1O | inconclusive [inhibitor, single point] | –
CC(C)S(=O)(=O)c1csc(NC(=O)Nc2ccc(Cl)cc2)c1Cl | inconclusive [inhibitor, single point] | –
Cc1ccc(-n2c(=S)[nH]c3sc4c(c3c2=O)CCC4)cc1 | – | inactive: 2.15%
O=C(CCCN=C1NS(=O)(=O)c2ccccc21)OCc1cc([N+](=O)[O-])cc2c1OCOC2 | – | inactive: 3.81%
O=C1/C(=C/c2ccncc2)SC(=S)N1Cc1ccccc1 | inconclusive [inhibitor, single point] | –
C#CCOCCOCCOCCNc1nc(N2CCN(C(=O)[C@H]([C@@H](C)O)n3cc(CCCCN)nn3)CC2)nc(N2CCN(C(=O)[C@H](Cc3ccc(O)cc3)n3cc(CCO)nn3)CC2)n1 | inconclusive [inhibitor, partial curve] | –
CCOc1ccc(CN2CCN(CC(O)Cn3c4ccccc4c4ccccc43)CC2)cc1 (centres undefined) | inconclusive [inhibitor, single point] | –
Cc1cc(N(C)C)ccc1N=Nc1ccc2ncccc2c1 | active: 20 µM | –
CC(C)COc1ccc(S(=O)(=O)NNC(=O)c2cc3ccccc3o2)cc1 | inconclusive [inhibitor, single point] | –
O=[N+]([O-])c1ccccc1N/N=C\c1ccccc1F | inconclusive [inhibitor, partial curve, poor fit] | –
Cc1ccc(NC(=O)CN(C)CC(=O)Nc2cccc(F)c2)cc1S(=O)(=O)N1CCCCCC1 | inconclusive [inhibitor, single point] | –
CCOC(=O)c1sc2ncn(/N=C/c3ccc(O)c(OC)c3)c(=O)c2c1C | inconclusive [inhibitor, partial curve] | –
Oc1cccc(/C=N/N2CCN(C3c4ccccc4-c4ccccc43)CC2)c1 | inconclusive [inhibitor, partial curve, poor fit] | –
O=C(CNCC1CCCCC1)Nc1cccc(S(=O)(=O)N2CCOCC2)c1 | inconclusive [inhibitor, full curve, poor fit] | –
Cc1ccc(Nc2nc(N)c([N+](=O)[O-])c(N3CCOCC3)n2)cc1 | inconclusive [activator, partial curve, poor fit] | –
COc1ccc(NCc2nc3ccccc3n2CCOc2ccc(C)cc2)cc1 | inconclusive [inhibitor, single point] | –
Cc1cc(C)n(-c2nc3ccccc3nc2Nc2ccc3c(c2)OCO3)n1 | inconclusive [activator, single point] | –
